Reference: paper PMC5892938
This is one part of the list. At the low end of the ranking the order means little.

What follows are sequences tested against GST-SBP-SLBP (stem-loop binding protein) (UniProt Q14493) (assay: targeted RNA Bind-n-Seq). Conditions: RBNS binding buffer: 25 mM Tris pH 7.5, 150 mM KCl, 3 mM MgCl2, 0.1% Tween, 0.5 mg/mL BSA, 1 mM DTT; 27 nM protein, 750 pM RNA pool; temperature not stated; high values mean tight binding.
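Further: DESeq read counts versus GST-SBP nonspecific binding control pulldown.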

Row | Sequence | binding signal (log2 fold change)
1 | GGUCACGUCUCAAUCAACUCAUUCCCAGGAGUUUUCUCCUGUUAACUCAACAGCUCGCAGUCAAG | 0.0241
2 | GGUCACGUCUCAAUCAACUCUAUAGAGGGGGGGAAAACCCCUUUGCCCUCAACAUCAACAGCUCGCAGUCAAG | 0.0286
3 | GGUCACGUCUCAAUCAACUCUAUCGAGGGGGGGAAAACCCCUUUACCCUCUCAAUCAACAGCUCGCAGUCAAG | 0.049
4 | GGUCACGUCUCAAUCAACUCUUCUCCCAGGGAAACCCCUGGUUUUCUCAACAGCUCGCAGUCAAG | -0.0442
5 | GGUCACGUCUCAAUCAACUCAGUCUCAGGAGUUUACUCCUGCUAAUUCAACAGCUCGCAGUCAAG | -0.111
6 | GGUCACGUCUCAAUCAACUCAAUAGAGGGGGGGAAAACCCCUUUACCCUCCACUUCAACAGCUCGCAGUCAAG | 0.0643
7 | GGUCACGUCUCAAUCAACUCAAUCCCAGGAGUUUACUCCUGCAUAUUCAACAGCUCGCAGUCAAG | -0.0694
8 | GGUCACGUCUCAAUCAACUCACUCGAGGGGGGGAAAACCCCUUUACCCUCAACUUCAACAGCUCGCAGUCAAG | -0.0114
9 | GGUCACGUCUCAAUCAACUCCAUAGAGGGGGGGAAAACCCCUUUACCCUCAAACUCAACAGCUCGCAGUCAAG | -0.124
10 | GGUCACGUCUCAAUCAACUCAAUCCCCAGGGAAAUCCCUGGUUAACUCAACAGCUCGCAGUCAAG | -0.124
11 | GGUCACGUCUCAAUCAACUCUACUCCCAGGGAAAGCCCUGGUUUUUUCAACAGCUCGCAGUCAAG | 0.107
12 | GGUCACGUCUCAAUCAACUCUAUUUCAGGAGUUUUCUCCUGCAAUCUCAACAGCUCGCAGUCAAG | 0.0215
13 | GGUCACGUCUCAAUCAACUCAAUCUCCAGGGAAACCCCUGGUUAACUCAACAGCUCGCAGUCAAG | -0.235
14 | GGUCACGUCUCAAUCAACUCAUCUCCAGGAGUUUGCUCCUGUAUAUUCAACAGCUCGCAGUCAAG | -0.0561
15 | GGUCACGUCUCAAUCAACUCUAUUCCCAGGGAAAUCCCUGGUUUAUUCAACAGCUCGCAGUCAAG | -0.0416
16 | GGUCACGUCUCAAUCAACUCUUUUUCCAGGGAAAACCCUGGUUUAUUCAACAGCUCGCAGUCAAG | -0.0397
17 | GGUCACGUCUCAAUCAACUCUUCUUCAGGAGUUUGCUCCUGCAUUUUCAACAGCUCGCAGUCAAG | -0.087
18 | GGUCACGUCUCAAUCAACUCAUCCUCAGGAGUUUUCUCCUGUAAUCUCAACAGCUCGCAGUCAAG | 0.109
19 | GGUCACGUCUCAAUCAACUCAACUCCAGGAGUUUCCUCCUGCUUAUUCAACAGCUCGCAGUCAAG | -0.00125
20 | GGUCACGUCUCAAUCAACUCUUCUCCCAGGGAAAACCCUGGUAAACUCAACAGCUCGCAGUCAAG | 0.272
21 | GGUCACGUCUCAAUCAACUCUUAAGAGGGGGGGAAAACCCCUUUGCCCUCCAAUUCAACAGCUCGCAGUCAAG | -0.694
22 | GGUCACGUCUCAAUCAACUCAUUCCCCAGGGAAAUCCCUGGUAAACUCAACAGCUCGCAGUCAAG | -0.0132
23 | GGUCACGUCUCAAUCAACUCAAUCCCAGGAGUUUACUCCUGUAUUUUCAACAGCUCGCAGUCAAG | -0.0285
24 | GGUCACGUCUCAAUCAACUCUAUCCCCAGGGAAAGCCCUGGUAUACUCAACAGCUCGCAGUCAAG | 0.0411
25 | GGUCACGUCUCAAUCAACUCAAUUCCCAGGGAAAACCCUGGCAAACUCAACAGCUCGCAGUCAAG | -0.0334

Row | Sequence | binding signal (log2 fold change)
26 | GGUCACGUCUCAAUCAACUCAUUCGAGGGGGGGAAAACCCCUUUACCCUCAACUUCAACAGCUCGCAGUCAAG | -0.124
27 | GGUCACGUCUCAAUCAACUCAUCCCCAGGAGUUUCCUCCUGUAAUUUCAACAGCUCGCAGUCAAG | 0.0669
28 | GGUCACGUCUCAAUCAACUCAAUCUCAGGAGUUUGCUCCUGCAUAGUCAACAGCUCGCAGUCAAG | 0.131
29 | GGUCACGUCUCAAUCAACUCCCAAGAGGGGGGGAAAACCCCUUUGCCCUCAACUUCAACAGCUCGCAGUCAAG | -0.504
30 | GGUCACGUCUCAAUCAACUCAUCUUCAGGAGUUUGCUCCUGUAAAUUCAACAGCUCGCAGUCAAG | -0.00549
31 | GGUCACGUCUCAAUCAACUCAAUCCCAGGAGUUUACUCCUGCUUUUUCAACAGCUCGCAGUCAAG | 0.129
32 | GGUCACGUCUCAAUCAACUCUAUUCCCAGGGAAACCCCUGGCAAAUUCAACAGCUCGCAGUCAAG | -0.00801
33 | GGUCACGUCUCAAUCAACUCUUCCUCCAGGGAAAGCCCUGGCUAACUCAACAGCUCGCAGUCAAG | 0.0397
34 | GGUCACGUCUCAAUCAACUCUAUUUCAGGAGUUUACUCCUGUUUAUUCAACAGCUCGCAGUCAAG | -0.0283
35 | GGUCACGUCUCAAUCAACUCUACUUCCAGGGAAACCCCUGGUAUAUUCAACAGCUCGCAGUCAAG | -0.0699
36 | GGUCACGUCUCAAUCAACUCAUUCUCAGGAGUUUCCUCCUGCAUAGUCAACAGCUCGCAGUCAAG | 0.184
37 | GGUCACGUCUCAAUCAACUCUACUUCAGGAGUUUCCUCCUGCAAACUCAACAGCUCGCAGUCAAG | 0.0801
38 | GGUCACGUCUCAAUCAACUCUUUUCCCAGGGAAAUCCCUGGUUUUCUCAACAGCUCGCAGUCAAG | -0.00953
39 | GGUCACGUCUCAAUCAACUCAUCUCCCAGGGAAAACCCUGGCUAAUUCAACAGCUCGCAGUCAAG | -0.261
40 | GGUCACGUCUCAAUCAACUCCACGGAGGGGGGGAAAACCCCUUUACCCUCAUUUUCAACAGCUCGCAGUCAAG | 0.0356
41 | GGUCACGUCUCAAUCAACUCUCAAGAGGGGGGGAAAACCCCUUUACCCUCACAAUCAACAGCUCGCAGUCAAG | 0.236
42 | GGUCACGUCUCAAUCAACUCCCCAGAGGGGGGGAAAACCCCUUUACCCUCGUAAUCAACAGCUCGCAGUCAAG | -0.316
43 | GGUCACGUCUCAAUCAACUCUUUCUCAGGAGUUUUCUCCUGCAUACUCAACAGCUCGCAGUCAAG | 0.0582
44 | GGUCACGUCUCAAUCAACUCAUUUCCAGGAGUUUUCUCCUGCAUUCUCAACAGCUCGCAGUCAAG | -0.0313
45 | GGUCACGUCUCAAUCAACUCAUUUCCCAGGGAAAGCCCUGGCAUUCUCAACAGCUCGCAGUCAAG | -0.0541
46 | GGUCACGUCUCAAUCAACUCUUCCGAGGGGGGGAAAACCCCUUUACCCUCACUAUCAACAGCUCGCAGUCAAG | 0.347
47 | GGUCACGUCUCAAUCAACUCUACUCCAGGAGUUUACUCCUGCUUUCUCAACAGCUCGCAGUCAAG | -0.108
48 | GGUCACGUCUCAAUCAACUCAUUCUCAGGAGUUUCCUCCUGUUUACUCAACAGCUCGCAGUCAAG | 0.0735
49 | GGUCACGUCUCAAUCAACUCUAUCCCCAGGGAAAGCCCUGGUAUAUUCAACAGCUCGCAGUCAAG | 0.366
50 | GGUCACGUCUCAAUCAACUCAUUUUCCAGGGAAAACCCUGGUUUAUUCAACAGCUCGCAGUCAAG | -0.141

Row | Sequence | binding signal (log2 fold change)
51 | GGUCACGUCUCAAUCAACUCUAUUCCAGGAGUUUCCUCCUGCAUACUCAACAGCUCGCAGUCAAG | 0.00341
52 | GGUCACGUCUCAAUCAACUCUUUUUCAGGAGUUUCCUCCUGCUAAUUCAACAGCUCGCAGUCAAG | -0.0557
53 | GGUCACGUCUCAAUCAACUCAAUCCCCAGGGAAAACCCUGGCAUUCUCAACAGCUCGCAGUCAAG | -0.146
54 | GGUCACGUCUCAAUCAACUCAUCUUCAGGAGUUUACUCCUGCUAUCUCAACAGCUCGCAGUCAAG | 0.0554
55 | GGUCACGUCUCAAUCAACUCCAAAGAGGGGGGGAAAACCCCUUUACCCUCAAGAUCAACAGCUCGCAGUCAAG | -0.0287
56 | GGUCACGUCUCAAUCAACUCACUAGAGGGGGGGAAAACCCCUUUACCCUCACUCUCAACAGCUCGCAGUCAAG | 0.0171
57 | GGUCACGUCUCAAUCAACUCUUCUCCCAGGGAAAGCCCUGGCUAACUCAACAGCUCGCAGUCAAG | 0.0497
58 | GGUCACGUCUCAAUCAACUCAUCGCCAGGAGUUUCCUCCUGUAUAUUCAACAGCUCGCAGUCAAG | 0.14
59 | GGUCACGUCUCAAUCAACUCAUUUUCAGGAGUUUUCUCCUGUUAACUCAACAGCUCGCAGUCAAG | -0.125
60 | GGUCACGUCUCAAUCAACUCUAUCUCAGGAGUUUGCUCCUGCAAUUUCAACAGCUCGCAGUCAAG | 0.0141
61 | GGUCACGUCUCAAUCAACUCCAACGAGGGGGGGAAAACCCCUUUACCCUCAAUAUCAACAGCUCGCAGUCAAG | -0.236
62 | GGUCACGUCUCAAUCAACUCAUCUUCCAGGGAAAUCCCUGGCUAUUUCAACAGCUCGCAGUCAAG | 0.109
63 | GGUCACGUCUCAAUCAACUCAUCUCCAGGAGUUUCCUCCUGUAAACUCAACAGCUCGCAGUCAAG | 0.135
64 | GGUCACGUCUCAAUCAACUCAUCCUCAGGAGUUUUCUCCUGUUUAGUCAACAGCUCGCAGUCAAG | 0.214
65 | GGUCACGUCUCAAUCAACUCUUCUUCCAGGGAAACCCCUGGUAAACUCAACAGCUCGCAGUCAAG | -0.0462
66 | GGUCACGUCUCAAUCAACUCUACUUCCAGGGAAAUCCCUGGCAUUCUCAACAGCUCGCAGUCAAG | 0.107
67 | GGUCACGUCUCAAUCAACUCAAGUCCAGGAGUUUCCUCCUGUUAAUUCAACAGCUCGCAGUCAAG | -0.209
68 | GGUCACGUCUCAAUCAACUCCCACGAGGGGGGGAAAACCCCUUUACCCUCAUCUUCAACAGCUCGCAGUCAAG | -0.203
69 | GGUCACGUCUCAAUCAACUCUUCUCCAGGAGUUUCCUCCUGCUUUCUCAACAGCUCGCAGUCAAG | 0.0742
70 | GGUCACGUCUCAAUCAACUCAUCCCCCAGGGAAAGCCCUGGUUUUUUCAACAGCUCGCAGUCAAG | -0.322
71 | GGUCACGUCUCAAUCAACUCAAUUUCAGGAGUUUCCUCCUGCUUUUUCAACAGCUCGCAGUCAAG | 0.0717
72 | GGUCACGUCUCAAUCAACUCAAUUUCAGGAGUUUCCUCCUGUAAACUCAACAGCUCGCAGUCAAG | -0.0664
73 | GGUCACGUCUCAAUCAACUCAAUAGAGGGGGGGAAAACCCCUUUACCCUCACAAUCAACAGCUCGCAGUCAAG | 0.0449
74 | GGUCACGUCUCAAUCAACUCUCAAGAGGGGGGGAAAACCCCUUUACCCUCACUCUCAACAGCUCGCAGUCAAG | 0.247
